17 sequences from PMC4081100 can be followed below.

The entries are a selection whose mix differs from that of the whole data set. For part of these data: At the low end of the ranking the order means little. Some of the results follow. For part of these data: The exact form of the protein is not confirmed.

Common to all, as to test: universal protein binding microarray (PBM)
Conditions in all cases: transcription factors of Arabidopsis thaliana; high values mean tight binding; most listed sequences are background and not binding sites; double strand, one strand shown

In test [1] the target is T1, GST-ANAC092(1-176) (UniProt Q9FKA0).
T1 sequence: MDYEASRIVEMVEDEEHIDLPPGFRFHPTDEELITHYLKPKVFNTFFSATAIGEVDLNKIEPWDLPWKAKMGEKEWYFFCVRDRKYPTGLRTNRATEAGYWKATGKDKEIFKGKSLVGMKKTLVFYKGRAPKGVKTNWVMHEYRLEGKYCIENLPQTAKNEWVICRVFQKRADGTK

In test [2] the target is GST-NTL6(1-168) (UniProt Q9SCK6).
In test [3] the target is T2, GST-ANAC055(1-171) (UniProt Q9LDY8).
T2 sequence: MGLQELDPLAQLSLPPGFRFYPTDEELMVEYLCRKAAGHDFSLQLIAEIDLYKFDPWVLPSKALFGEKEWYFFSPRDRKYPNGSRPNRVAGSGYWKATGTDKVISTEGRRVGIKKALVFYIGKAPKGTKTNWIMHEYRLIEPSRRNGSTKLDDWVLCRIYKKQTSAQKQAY

Test [4] concerns the target T3, GST-ATAF1 NAC domain (UniProt Q39013).
T3 sequence: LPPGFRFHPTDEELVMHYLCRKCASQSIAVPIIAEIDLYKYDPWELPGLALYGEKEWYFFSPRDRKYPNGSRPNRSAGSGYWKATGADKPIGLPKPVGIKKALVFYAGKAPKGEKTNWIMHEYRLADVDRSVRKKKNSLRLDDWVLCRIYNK

Test [5] has as its target T4, GST-NAP(1-166) (UniProt O49255).
T4 sequence: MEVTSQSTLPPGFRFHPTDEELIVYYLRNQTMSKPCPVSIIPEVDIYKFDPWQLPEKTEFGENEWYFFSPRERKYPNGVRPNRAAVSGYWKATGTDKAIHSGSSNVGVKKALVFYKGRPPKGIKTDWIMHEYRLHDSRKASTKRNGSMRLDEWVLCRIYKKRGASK

The target in test [6] is T5, GST-VND3 NAC domain (UniProt Q9FH59).
T5 sequence: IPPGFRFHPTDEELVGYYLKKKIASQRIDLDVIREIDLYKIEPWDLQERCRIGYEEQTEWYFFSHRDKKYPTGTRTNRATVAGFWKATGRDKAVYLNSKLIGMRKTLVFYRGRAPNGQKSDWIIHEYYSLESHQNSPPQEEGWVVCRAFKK

The target in test [7] is T6, GST-VOZ2 (Arabidopsis thaliana) (UniProt Q9SLB9).
T6 sequence: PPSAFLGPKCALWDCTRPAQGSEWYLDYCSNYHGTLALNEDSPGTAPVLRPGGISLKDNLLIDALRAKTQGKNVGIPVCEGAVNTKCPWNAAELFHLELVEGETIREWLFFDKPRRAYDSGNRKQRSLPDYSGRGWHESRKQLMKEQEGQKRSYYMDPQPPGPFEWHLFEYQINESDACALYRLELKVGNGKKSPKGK

Test [8] deals with GST-WRKY1(266-371) (UniProt Q9SI37).
The target in test [9] is T7, GST-ANAC092(1-285) full length (UniProt Q9FKA0).
T7 sequence: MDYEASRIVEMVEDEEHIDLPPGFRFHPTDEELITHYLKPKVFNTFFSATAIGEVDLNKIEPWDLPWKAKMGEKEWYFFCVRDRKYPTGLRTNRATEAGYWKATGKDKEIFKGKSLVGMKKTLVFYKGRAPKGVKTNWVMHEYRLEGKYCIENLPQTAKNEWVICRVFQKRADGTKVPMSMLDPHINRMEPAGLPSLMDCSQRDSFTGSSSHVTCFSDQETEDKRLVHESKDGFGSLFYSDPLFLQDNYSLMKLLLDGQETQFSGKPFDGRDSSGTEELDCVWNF

Test [10] concerns the target T8, GST-NTL8 NAC domain (UniProt Q9XIN7).
T8 sequence: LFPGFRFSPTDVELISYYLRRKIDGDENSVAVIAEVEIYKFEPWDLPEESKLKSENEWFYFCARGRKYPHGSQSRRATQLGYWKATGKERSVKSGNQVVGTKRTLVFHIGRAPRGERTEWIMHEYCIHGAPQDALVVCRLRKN

Test [11] has as its target T9, GST-ANAC019 NAC domain (UniProt Q9C932).
T9 sequence: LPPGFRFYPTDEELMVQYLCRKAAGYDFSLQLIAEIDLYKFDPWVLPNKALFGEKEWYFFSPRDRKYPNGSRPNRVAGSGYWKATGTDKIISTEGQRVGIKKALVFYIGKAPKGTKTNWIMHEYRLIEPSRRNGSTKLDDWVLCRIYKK

Test [12] addresses T10, GST-NST2(1-184) (UniProt Q9M274).
T10 sequence: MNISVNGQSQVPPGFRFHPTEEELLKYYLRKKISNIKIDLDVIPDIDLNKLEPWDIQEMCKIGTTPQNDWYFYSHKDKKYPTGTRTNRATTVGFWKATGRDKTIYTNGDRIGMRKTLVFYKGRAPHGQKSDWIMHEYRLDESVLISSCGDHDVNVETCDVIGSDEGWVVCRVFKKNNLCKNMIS

The target in test [13] is T11, GST-VND7 NAC domain (UniProt Q9C8W9).
T11 sequence: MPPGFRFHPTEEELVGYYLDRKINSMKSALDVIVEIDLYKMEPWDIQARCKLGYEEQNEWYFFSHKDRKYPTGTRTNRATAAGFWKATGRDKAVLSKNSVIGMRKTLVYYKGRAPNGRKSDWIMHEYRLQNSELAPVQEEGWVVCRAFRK

Consider CTTGCTTC, for which the binding signal in [1] is 0.288 E-score; in [2], 0.295 E-score; in [3], -0.0421 E-score; in [4], -0.0219 E-score; in test [5], -0.0691 E-score; in test [6] it was -0.0922 E-score. Moreover, the binding signal was 0.0145 E-score in [7] and -0.0743 E-score in test [8].
In the case of ACTTAACC, the binding signal in test [1] was 0.197 E-score; in test [4] it was 0.132 E-score; in test [9], 0.186 E-score; in test [5] it was -0.0376 E-score; in [10] it was 0.243 E-score; in test [6] it was 0.203 E-score. Further, the binding signal in test [7] was determined as 0.223 E-score; in test [8] it was 0.0388 E-score.
For GTCAAACA, the binding signal in test [1] is 0.0319 E-score; in [2] it was -0.0277 E-score; in test [11], 0.0368 E-score; in [3] it was -0.00752 E-score; in [4], -0.0339 E-score; in test [9] it was 0.11 E-score. Further, the binding signal in test [5] is -0.0469 E-score; in test [12], 0.048 E-score; in test [10] it was 0.0043 E-score; in test [6], -0.00865 E-score; in test [7] it was 0.0199 E-score; in [8], 0.475 E-score.
AAAGGAAA: the binding signal in test [1] was determined as 0.196 E-score; in test [2], 0.284 E-score; in test [11], 0.105 E-score; in test [5] it was 0.015 E-score; in [10], 0.457 E-score; in [6], 0.166 E-score. Moreover, the binding signal in [7] is 0.0817 E-score; in [8] it was 0.00415 E-score.
As to ACGTAAGT, the binding signal was 0.212 E-score in [2], 0.414 E-score in test [6], 0.06 E-score in test [7] and 0.112 E-score in test [8].
Turning to CACGCAAA, the binding signal in [1] turned out to be 0.487 E-score; in test [11] it was 0.421 E-score; in test [9], 0.486 E-score; in test [10], 0.0878 E-score; in test [6] it was 0.396 E-score; in [7], 0.157 E-score. In test [8], the binding signal came out at 0.0331 E-score.
With GGAAGCAA, the binding signal in [1] is 0.318 E-score; in test [2], 0.36 E-score; in test [3], 0.136 E-score; in test [6], 0.118 E-score; in test [7], 0.0594 E-score; in [8] it was -0.0599 E-score.
Consider TAAAGCAA, for which the binding signal in [1] is 0.138 E-score; in test [2], 0.134 E-score; in test [11] it was 0.006 E-score; in test [3], -4e-05 E-score; in [4], 0.0247 E-score; in [5], -0.0877 E-score. The binding signal was 0.135 E-score in [6], 0.0227 E-score in [7] and -0.00956 E-score in test [8].
As to ACGCAAGG, the binding signal in test [2] is 0.0426 E-score; in test [4], 0.106 E-score; in test [6] it was 0.122 E-score; in test [13], 0.128 E-score; in [7] it was 0.0129 E-score.
With ATTACGTG, the binding signal was determined as 0.457 E-score in test [1]; 0.372 E-score in [4]; 0.419 E-score in [5]; 0.446 E-score in [6]; 0.138 E-score in test [7]; 0.127 E-score in [8].
As to GACGTAAA, the binding signal was 0.0499 E-score in test [2]; 0.399 E-score in [9]; 0.311 E-score in [5]; -0.074 E-score in test [10]; 0.329 E-score in test [6]; 0.138 E-score in test [7].
Consider CAGTCAAA, for which the binding signal in test [1] is 0.125 E-score; in [2], 0.0796 E-score; in test [3], 0.063 E-score; in [5] it was 0.0821 E-score; in [12] it was -0.0211 E-score; in [10], 0.104 E-score. Moreover, the binding signal in test [6] was 0.0343 E-score; in test [7], 0.0706 E-score.
As for CAAAGTCA, the binding signal in test [1] is 0.0464 E-score; in test [2], -0.0321 E-score; in test [11], -0.047 E-score; in test [4] it was 0.0379 E-score; in [5], 0.0447 E-score; in [12], 0.032 E-score. The binding signal in test [10] was -0.071 E-score; in test [13], 0.0536 E-score; in test [7], -0.029 E-score; in [8], 0.454 E-score.
For AAGTCAGA, the binding signal in test [1] was 0.0562 E-score; in [2], 0.0583 E-score; in [11] it was 0.0582 E-score; in test [3], 0.073 E-score; in [4] it was 0.0162 E-score; in test [5], -0.00178 E-score. Also, the binding signal in test [10] is -0.108 E-score; in [13], 0.0411 E-score; in test [7], 0.00566 E-score; in test [8] it was 0.455 E-score.
Turning to AGCACGCA, the binding signal in [1] was 0.435 E-score; in test [2], -0.1 E-score; in test [11], 0.333 E-score; in test [9], 0.453 E-score; in test [12], 0.222 E-score; in test [10], 0.0609 E-score. Also, the binding signal in [13] was 0.216 E-score; in test [7], 0.0267 E-score; in [8] it was -0.0625 E-score.
Regarding CTACGTAA, the binding signal was 0.329 E-score in [1]; 0.0836 E-score in [2]; 0.378 E-score in test [9]; 0.0582 E-score in test [12]; 0.105 E-score in test [10]; 0.345 E-score in test [13]. For the same sequence, the figures for the binding signal in test [7] and in test [8] were -0.0348 E-score and -0.0301 E-score, respectively.
In the case of CACGCGAC, the binding signal in [1] was 0.421 E-score; in test [2] it was -0.0963 E-score; in test [11], -0.0248 E-score; in test [3], 0.0447 E-score; in test [4], 0.0222 E-score; in [10], -0.0608 E-score. Moreover, the binding signal in [6] is -0.00526 E-score; in test [7], 0.14 E-score.
